Measured values taken from ChEMBL document CHEMBL1201862, “PubChem BioAssay data set” (2004).
Where a name gives a salt, the structure may show the parent alone.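 Exposure lasted 48 hours, with cells grown in 96-well plates and compounds tested at five concentrations. Here, GI50 denotes the concentration required for 50% inhibition of growth.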 Calls of active or inactive are those of the source. Cut-off read from the data, not from the text of the source: active = GI50 up to about 1.1 µM and inactive = higher.

test system: NCI-H322M; assay: DTP human tumour cell line panel, 48 h

SMILES	GI50
CCCCc1ccc(Nc2nc(Cl)c3[nH]cnc3n2)cc1	inactive: 37.2 µM
COc1ccc2c(c1OC)OCC(CN(C)C)C2=O (centres undefined)	inactive: 94.6 µM
O=c1n(CCCN2CCOCC2)nc2n1-c1ccc3ccccc3c1SC2	inactive: > 10 µM
O=C1Sc2ccccc2/C1=N/Nc1ccccc1[N+](=O)[O-]	inactive: > 100 µM
CCc1ccc(COC(=O)C2=C(C)NC(C)=C(C(=O)OCc3ccc(CC)cn3)C2C2=COCCO2)nc1	inactive: 27.5 µM
O=C1CCCC/C(=C/c2ccccc2)N1	inactive: > 100 µM
O=NC1C(Cl)C2CC1C1C(Br)C(Br)CC21 (centres undefined)	inactive: > 100 µM
O=P1(Oc2ccccc2)NCc2ncccc2O1 (centres undefined)	inactive: > 100 µM
c1ccc(COc2ncccc2C2SCCCS2)cc1	inactive: > 100 µM
O=C(CC(=O)c1cccc([N+](=O)[O-])c1)C(=O)Nc1nc([N+](=O)[O-])cs1	inactive: > 100 µM
COc1ccc(C(=O)/C(=N/Nc2ccccc2)c2ccc(OC)cc2)cc1	inactive: > 100 µM
O=[N+]([O-])c1ccc(C2=Nn3c(nnc3-c3ccccc3)SC2)o1	inactive: 55.2 µM
C/N=C(/NC)N(C)c1nc(=[N+](C)C)ss1.[O-][Cl+3]([O-])([O-])[O-]	inactive: > 100 µM
Nc1ccn(CCO)c(=O)n1	inactive: > 100 µM
COc1cc2ccc(CC(N)=O)cc2cc1OC	inactive: > 100 µM
COc1ccc(NC(C(N)=O)c2cc3cc(Br)ccc3nc2Cl)cc1 (centres undefined)	inactive: > 100 µM
CN(C)CCn1c(=O)c2ccc3c4c(nn3CCN(C)C)c3cc(O)ccc3n(c1=O)c24	active: < 0.0108 µM
O=[N+]([O-])C1C2C=CC(C2)[C@H]1c1ccco1 (some centres undefined)	inactive: > 100 µM
CCC1(CC)C(=O)NC(=S)N=C1N	inactive: > 100 µM
C=CC(=C)CCC(Br)C(C)(C)Cl (centres undefined)	inactive: > 100 µM
Cc1nc(-c2ccccc2)cn2c1nc1ccccc12	inactive: 27.2 µM
CN1CCCNCCN(CCc2ccccn2)CCCN(C)CC1	inactive: > 100 µM
COc1cc(C2SC(=N)Nc3c2c(C)nn3C(=O)Cc2ccccc2)cc(OC)c1OC (centres undefined)	inactive: > 100 µM

SMILES	GI50
O=C(C[C@@H]1CCCN2CCCC[C@H]12)N1c2ccccc2Sc2ccc(Cl)cc21	inactive: 16.6 µM
O=[N+]([O-])c1ccc(Nc2nc3ccccc3s2)cc1	inactive: 36.1 µM
O=c1[nH]nc(-c2ccccc2)n1/N=C\c1ccccc1	inactive: > 100 µM
CCCN(CCC)c1cc2c(cc1F)c(=O)c(C(=O)O)cn2-c1ccc(N2CCN(C)CC2)cn1	inactive: 15 µM
CC(C)c1nc2cc(C(F)(F)F)ccc2[nH]c1=O	inactive: > 100 µM
COc1ccc2[nH]c3c4c(c5cc(C(C)(C)C)ccc5c3c2c1)C(=O)N(c1ccccc1)C4=O	inactive: > 100 µM
COC(=O)n1c(=O)nc2c3c(ncn21)Oc1c(c(-c2ccccc2)nn1-c1ccccc1)C3c1ccc(Cl)cc1 (centres undefined)	inactive: 1.47 µM
COc1cc(C(=O)C/C(CCC(=O)Nc2ccccc2[N+](=O)[O-])=N\NC(=O)C(N)=O)ccc1O	inactive: > 100 µM
O=S(=O)(c1cnccc1N1CCN(CCO)CC1)N1CCCC1	inactive: > 100 µM
c1ccc(/C(=N/Nc2ccccn2)c2ncccn2)cc1	inactive: 2.46 µM
N#Cc1nc(C2=C(Cl)c3ccccc3OC2)[nH]c1C#N	inactive: 24.7 µM
O=C1CC[N+]2=Cc3ccccc3O[B-]2(c2ccccc2)O1 (centres undefined)	inactive: > 100 µM
CC1=C(O)C(=O)C2=C(C1=O)[C@@H]([C@@H](C)C/C=C/C(C)(C)O)CC[C@@H]2C	inactive: 27.3 µM
O=C1CCN2C(=N1)Sc1ccccc12	inactive: > 100 µM
C=CCNC(=O)/C=C\C(=O)O	inactive: > 100 µM
CC1CC[C@@]2(OC1)O[C@H]1C[C@H]3[C@@H]4CC[C@H]5C[C@@H](OC6OC(CO)C(OC7OC(CO)C(OC8OC(CO)C(O)C(OC9OC(C)C(OC%10OC(C)C(O)C(O)C%10O)C(O)C9O)C8OC8OCC(O)C(O)C8O)C(O)C7O)C(O)C6O)CC[C@]5(C)[C@H]4CC(=O)[C@]3(C)[C@H]1[C@@H]2C (some centres undefined)	inactive: 18.5 µM
CC1=CC[C@@]2(C)[C@@H]([C@@H]1C)[C@H]1CC[C@@H]3[C@@]4(C)CC[C@H](O)C(C)(C)[C@@H]4CC[C@@]3(C)[C@]1(C)C[C@@H]2O	inactive: 5.2 µM
COc1ccc2c(c1)SC1=Nc3sc4cc(OC)ccc4[n+]3CN12	inactive: 87.9 µM
COc1cccc(NC(=O)CC(=O)NN)c1	inactive: > 100 µM
COc1cc2c(cc1OC)C(CC1=C(c3ccccc3)CN3CCc4cc(OC)c(OC)cc4C3C1)NCC2 (centres undefined)	inactive: 14.9 µM
O=C1CSC(c2cccc([N+](=O)[O-])c2)N1c1ccc(-c2ccc(-n3c(-c4ccccc4)nc4ccccc4c3=O)cc2)cc1 (centres undefined)	inactive: 60 µM
CC(C)(C)C=C=C(C(C)(C)C)P(=O)(O)O	inactive: > 100 µM
COc1cc2c3c(n(Cc4ccccc4)c(=O)c2cc1OC)-c1ccccc1C3=O	inactive: > 100 µM

SMILES	GI50
CCC(C(=O)c1cccs1)C(O)(C(F)(F)F)C(F)(F)F (centres undefined)	inactive: > 100 µM
COCCN(CCNC(=O)c1cccc2c(N)c3cccc(C)c3nc12)CCOC	active: 0.787 µM
COc1ccc(-c2c(-c3ccccc3)c(C)c3ccccn23)cc1	inactive: > 100 µM
CC(=O)NC(CCCNC(=O)OCc1ccccc1)C(=O)NCc1ccccc1 (centres undefined)	inactive: > 100 µM
CCc1n[nH]c(=O)n1NC(=O)CCCC(=O)O	inactive: > 100 µM
O=C(O)c1c[nH]cc1C(=O)O	inactive: > 100 µM
C=C1C(=O)OC2CC3(C)CCCC(C)C3=CC12 (centres undefined)	inactive: 15.6 µM
O=C1/C(=C/c2ccc(Cl)cc2)N=C(c2ccccc2)N1c1ccc(S(=O)(=O)Nc2nccs2)cc1	inactive: 45.5 µM
CN(Cc1c[n+]([O-])c2nc(N)nc(N)c2n1)c1ccc(C(=O)NC23CC4CC(CC(C4)C2)C3)cc1	inactive: > 100 µM
O=C(NC1CC1)c1c(O)[nH]c(=S)[nH]c1=O	inactive: > 100 µM
CCc1cc2c(oc3cc(C)ccc32)c(=O)n1C	inactive: > 10 µM
CC(=O)N(C)c1ccc(Nc2cc(C)nc3ccc4nc[nH]c4c23)cc1 [ACODAZOLE HYDROCHLORIDE]	inactive: 8.17 µM
CCOC(=O)/C=C/C(=O)O/C=C/[N+](=O)[O-]	inactive: > 100 µM
C[C@]12CC[C@H](O)CC1=CC[C@@H]1C2CC[C@]2(C)C(=O)N(N)C(=O)CC12 (some centres undefined)	inactive: > 100 µM
COC(=O)C1C(/C=C/c2ccoc2)ON2CCC[C@@H]12 (some centres undefined)	inactive: > 100 µM
COC(=O)C(Cc1ccccc1)NS(=O)(=O)c1ccc(-c2c3nc(c(-c4ccc(S(=O)(=O)NC(Cc5ccccc5)C(=O)OC)cc4)c4ccc([nH]4)c(-c4ccc(S(=O)(=O)NC(Cc5ccccc5)C(=O)OC)cc4)c4nc(c(-c5ccc(S(=O)(=O)NC(Cc6ccccc6)C(=O)OC)cc5)c5ccc2[nH]5)C=C4)C=C3)cc1 (centres undefined)	inactive: > 100 µM
Cc1ccc(N(C=O)c2c([N+](=O)[O-])cc([N+](=O)[O-])c3c2=[N+]([O-])CN=3)cc1	inactive: > 100 µM
CC(C)C(NC(=O)Oc1ccccc1)C(=O)NC1c2c(Br)sc(Br)c2C(=O)C1O (centres undefined)	inactive: 7.45 µM
CCO/C=N/C1=C(C#N)C(c2ccc(Cl)cc2)c2c(-c3ccccc3)nn(-c3ccccc3)c2O1 (centres undefined)	inactive: 16.2 µM
COc1cccc2[nH]c(-c3ccccn3)nc12	inactive: > 100 µM
O=C1CSC(c2ccccc2O)N1c1ccc(-n2c(-c3ccccc3)nc3ccccc3c2=O)cc1 (centres undefined)	inactive: 31 µM
O=C(O)CNS(=O)(=O)c1ccc(NCc2ccccc2)cc1	inactive: > 100 µM
Cc1ccc2c(c1)C(=O)/C(=C\c1ccccc1)CCS2(=O)=O	inactive: 13.5 µM

SMILES	GI50
COc1ccc(S(=O)(=O)Nc2ccccc2C(=O)O)cc1	inactive: > 100 µM
N#Cc1nc(C2CC2)oc1N	inactive: > 100 µM
OC1(c2ccc(Cl)cc2)c2c(c3ccccc3c3ccccc23)C2=NCCN21 (centres undefined)	inactive: 19.8 µM
Cc1cc(=O)nc(S(=O)(=O)NC(=S)Nc2ccc(Br)cc2)[nH]1	inactive: > 100 µM
COc1cc2nc(-c3cccs3)nc(Nc3ccccc3C(=O)NN)c2cc1OC	inactive: > 100 µM
CCOc1ccc(N/C(=C(/C(Cl)=C(/Cl)NCCN)[N+](=O)[O-])n2nnc3ccccc32)cc1	inactive: > 100 µM
O=c1[nH]nc(Cc2ccc(Cl)cc2)n1/N=C/c1c[nH]c2ccccc12	inactive: > 100 µM
CCOC(=O)C(CCSC)(CCSC)C(=O)OCC	inactive: > 100 µM
COc1nc(NC2OCC(O)C(O)C2O)c(NC2OCC(O)C(O)C2O)c(=O)n1C (centres undefined)	inactive: > 100 µM
CCOC(=O)[C@@H]1C2C(=C[C@H]3[C@H]1C(=O)N1CCCC[C@H]31)CCCN2C(=O)OCc1ccccc1 (some centres undefined)	inactive: 53.6 µM
CNC(=O)CC1NC(=O)c2csc(n2)-c2ccc(-c3nc(C4=NC(C(=O)N5CCCC5C(N)=O)CO4)cs3)nc2-c2csc(n2)-c2csc(n2)C(C(C)C)NC(=O)CNC(=O)c2csc(n2)C(C(C)C)NC(=O)c2nc1sc2C (centres undefined)	active: 0.0165 µM
O=C(O)/C(O)=C\C(=O)c1ccc(Br)cc1	inactive: > 100 µM
COc1ccc2nc3ccccc3c(NCCCCN(C)CCCl)c2c1	active: 0.115 µM
COC(=O)c1cc(Cl)ccc1NC(=O)c1ccc([N+](=O)[O-])cc1	inactive: 23.2 µM
COc1ccc2nc(NCN3C(=O)c4ccccc4C3=O)sc2c1	inactive: > 100 µM
C=C1c2nc3ccccc3n2C=C(c2ccc(Cl)cc2)N1c1ccc(OCCN2CCCCC2)cc1	inactive: > 45 µM
CC(=O)c1c(P(=O)(OC(C)C)OC(C)C)nn(-c2ccc([N+](=O)[O-])cc2)c1C	inactive: > 100 µM
CCOC(=O)C1CN(C2CC2)CCC1=O (centres undefined)	inactive: > 100 µM
c1ccc([P+](c2ccccc2)(c2ccccc2)C2Sc3ccccc3S2)cc1	inactive: 34.6 µM
CCN(CC)c1nc(NC2CCCCC2)c2nc(N(CC)CC)nc(NC3CCCCC3)c2n1	inactive: > 100 µM
